Only a part is listed here, and it is no random draw. For some of these results: The list includes weakly bound sequences.
How the values were obtained:
Assay in all cases: protein-binding microarray (PBM)
Conditions in all cases: PBM: ~300 nM protein, 6 mM HEPES pH 7.8, 80 mM KCl, 0.5 mM EDTA, 0.5 mM EGTA, 6% glycerol, 35 ng/ul poly-dIdC, 1% milk, 1 h, room temperature; Ap Aiptasia and Nv Nematostella (sea anemones) / Co Capsaspora / Aq Amphimedon (sponge) / Dm Drosophila / Hu human; RHD is the Rel homology domain; high values mean tight binding; most listed sequences are background and not binding sites; double strand, one strand shown
[1] = molecular target: T1, GST-Nv-NF-kB (Cys allele) (UniProt E5G601)
T1 sequence: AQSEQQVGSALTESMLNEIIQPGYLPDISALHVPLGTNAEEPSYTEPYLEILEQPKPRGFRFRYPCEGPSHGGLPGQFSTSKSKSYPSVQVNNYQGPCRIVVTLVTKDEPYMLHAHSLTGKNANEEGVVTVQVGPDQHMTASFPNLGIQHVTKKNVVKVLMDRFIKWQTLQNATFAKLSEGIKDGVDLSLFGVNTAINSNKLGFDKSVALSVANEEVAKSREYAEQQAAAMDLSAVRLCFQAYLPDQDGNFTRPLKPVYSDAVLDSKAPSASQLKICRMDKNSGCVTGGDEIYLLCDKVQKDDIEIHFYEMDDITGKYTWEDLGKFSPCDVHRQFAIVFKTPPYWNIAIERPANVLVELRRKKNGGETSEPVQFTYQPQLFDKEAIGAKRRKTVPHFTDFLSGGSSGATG

GST-Aq-NF-kB = molecular target: T2, GST-Aq-NF-kB (UniProt A9Y5G7)
T2 sequence: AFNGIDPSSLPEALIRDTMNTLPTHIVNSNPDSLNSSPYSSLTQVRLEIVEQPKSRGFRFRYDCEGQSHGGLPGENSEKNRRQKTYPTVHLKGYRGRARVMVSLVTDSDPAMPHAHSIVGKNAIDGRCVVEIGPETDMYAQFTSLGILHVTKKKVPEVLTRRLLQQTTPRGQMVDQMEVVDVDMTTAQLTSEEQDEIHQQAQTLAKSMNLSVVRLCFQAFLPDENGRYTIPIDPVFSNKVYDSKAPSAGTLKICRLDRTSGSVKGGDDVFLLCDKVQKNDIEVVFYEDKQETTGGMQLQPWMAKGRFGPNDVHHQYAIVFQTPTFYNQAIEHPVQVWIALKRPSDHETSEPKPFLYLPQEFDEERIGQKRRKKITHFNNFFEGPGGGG

GST-Co-NF-kB = molecular target: T3, GST-Co-NF-kB (UniProt F1ARL5)
T3 sequence: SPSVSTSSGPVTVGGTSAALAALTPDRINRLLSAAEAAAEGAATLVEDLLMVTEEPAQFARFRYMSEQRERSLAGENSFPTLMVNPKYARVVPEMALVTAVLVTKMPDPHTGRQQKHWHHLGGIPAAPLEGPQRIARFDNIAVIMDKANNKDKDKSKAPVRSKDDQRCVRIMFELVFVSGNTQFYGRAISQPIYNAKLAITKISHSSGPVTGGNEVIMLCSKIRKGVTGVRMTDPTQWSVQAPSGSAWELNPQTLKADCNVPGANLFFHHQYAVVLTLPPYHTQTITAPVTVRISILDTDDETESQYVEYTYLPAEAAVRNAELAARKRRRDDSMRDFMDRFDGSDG

For “CCGATTAACATCAAGGGGGGTATTGATGTTAATCGGGTCTTGATTCGCTTGACGCTGCTG”, the binding signal [1] was 4.4 z-score and the binding signal (GST-Aq-NF-kB) was 5.2 z-score.
“CCGATTAACATCAGGAAATTCCCTGATGTTAATCGGGTCTTGATTCGCTTGACGCTGCTG” gave a binding signal [1] of 9.9 z-score and a binding signal (GST-Aq-NF-kB) of 9.8 z-score.
In the case of “CCGATTAACATCAATTATCCCCCTGATGTTAATCGGGTCTTGATTCGCTTGACGCTGCTG”, the binding signal [1] is reported as 5.48 z-score, the binding signal (GST-Co-NF-kB) is reported as 7.87 z-score and the binding signal (GST-Aq-NF-kB) is reported as 5.15 z-score.
“CCGATTAACATCAAGGGGGAATATGATGTTAATCGGGTCTTGATTCGCTTGACGCTGCTG” gave a binding signal [1] of 8.35 z-score, a binding signal (GST-Co-NF-kB) of 7.86 z-score and a binding signal (GST-Aq-NF-kB) of 6.45 z-score.
“CCGATTAACATCAAGTATTTCCCTGATGTTAATCGGGTCTTGATTCGCTTGACGCTGCTG” showed a binding signal [1] of 5.18 z-score and a binding signal (GST-Aq-NF-kB) of 5.42 z-score.
Sequence “CCGATTAACATCAGGGGAACACATGATGTTAATCGGGTCTTGATTCGCTTGACGCTGCTG” has a binding signal [1] of 5.02 z-score, a binding signal (GST-Co-NF-kB) of 6.41 z-score and a binding signal (GST-Aq-NF-kB) of 4.1 z-score.
“CCGATTAACATCAGGGAAAGCCCTGATGTTAATCGGGTCTTGATTCGCTTGACGCTGCTG” was tested, and the binding signal [1] was 8.76 z-score, the binding signal (GST-Co-NF-kB) was 1.84 z-score and the binding signal (GST-Aq-NF-kB) was 8.88 z-score.
With “CCGATTAACATCACCGCCCCCCCTGATGTTAATCGGGTCTTGATTCGCTTGACGCTGCTG” the binding signal [1] was 4.65 z-score and the binding signal (GST-Aq-NF-kB) was 4.3 z-score.
“CCGATTAACATCAGTAATCCCCATGATGTTAATCGGGTCTTGATTCGCTTGACGCTGCTG” was tested, and the binding signal [1] was 5.74 z-score and the binding signal (GST-Aq-NF-kB) was 4.5 z-score.
For “CCGATTAACATCAGGACTTTCCCTGATGTTAATCGGGTCTTGATTCGCTTGACGCTGCTG”, the binding signal [1] was 10.2 z-score, the binding signal (GST-Co-NF-kB) was 1.87 z-score and the binding signal (GST-Aq-NF-kB) was 10.5 z-score.
In the case of “CCGATTAACATCAGGGGGTTACCTGATGTTAATCGGGTCTTGATTCGCTTGACGCTGCTG”, the binding signal [1] is reported as 6.63 z-score, the binding signal (GST-Co-NF-kB) is reported as 4.04 z-score and the binding signal (GST-Aq-NF-kB) is reported as 8.61 z-score.
For “CCGATTAACATCAAGGTGTTCCCTGATGTTAATCGGGTCTTGATTCGCTTGACGCTGCTG”, the binding signal [1] was 0.97 z-score, the binding signal (GST-Co-NF-kB) was 2.38 z-score and the binding signal (GST-Aq-NF-kB) was 2.49 z-score.

Source: paper PMC5700166
